{"source": "paper PMC4336329", "about": "(PLoS ONE, 2015)", "note": "About 2,200 (0.71%) of roughly 310,000 compounds showed an effect of 50% or more. Effects have a minus sign here. The list shows a part of the results."}
{"molecular_target": "human ether-à-go-go-related gene (hERG) potassium channel (human, UniProt Q12809)", "sequence (Q12809 whole entry, looked up)": "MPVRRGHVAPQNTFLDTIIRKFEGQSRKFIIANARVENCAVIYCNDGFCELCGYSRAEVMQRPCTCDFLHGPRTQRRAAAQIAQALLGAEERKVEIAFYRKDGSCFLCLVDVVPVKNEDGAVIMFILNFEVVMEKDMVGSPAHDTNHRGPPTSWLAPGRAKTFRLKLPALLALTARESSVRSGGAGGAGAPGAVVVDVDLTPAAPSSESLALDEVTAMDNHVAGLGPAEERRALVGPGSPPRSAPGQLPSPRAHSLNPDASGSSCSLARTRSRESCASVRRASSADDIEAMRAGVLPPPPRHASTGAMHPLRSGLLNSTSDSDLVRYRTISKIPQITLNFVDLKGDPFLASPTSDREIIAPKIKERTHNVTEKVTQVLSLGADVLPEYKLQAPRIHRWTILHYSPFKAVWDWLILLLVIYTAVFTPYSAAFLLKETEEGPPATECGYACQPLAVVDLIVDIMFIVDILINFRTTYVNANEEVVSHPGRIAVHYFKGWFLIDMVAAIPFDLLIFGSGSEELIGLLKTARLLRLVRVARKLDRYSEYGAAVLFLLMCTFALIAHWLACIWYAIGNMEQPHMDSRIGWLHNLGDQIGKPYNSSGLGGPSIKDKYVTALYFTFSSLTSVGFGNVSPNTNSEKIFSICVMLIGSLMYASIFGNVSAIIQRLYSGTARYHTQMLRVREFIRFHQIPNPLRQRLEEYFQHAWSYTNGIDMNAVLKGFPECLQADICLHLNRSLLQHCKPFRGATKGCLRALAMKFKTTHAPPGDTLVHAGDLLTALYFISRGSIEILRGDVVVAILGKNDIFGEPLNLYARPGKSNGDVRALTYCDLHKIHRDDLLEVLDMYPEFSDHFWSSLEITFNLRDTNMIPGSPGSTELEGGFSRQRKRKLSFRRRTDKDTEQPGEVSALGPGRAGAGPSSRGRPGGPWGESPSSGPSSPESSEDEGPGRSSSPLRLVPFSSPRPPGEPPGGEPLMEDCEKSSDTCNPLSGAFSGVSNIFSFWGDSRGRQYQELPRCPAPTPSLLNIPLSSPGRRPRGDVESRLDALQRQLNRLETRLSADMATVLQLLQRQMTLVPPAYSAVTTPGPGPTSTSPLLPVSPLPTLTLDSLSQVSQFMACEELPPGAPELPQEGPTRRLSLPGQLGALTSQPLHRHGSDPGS", "assay": "primary screen, population patch clamp on CHO cells stably expressing hERG", "units": {"hERG current change (%, negative = inhibition) at 1uM": "%"}}
{"smiles": "COc1ccc(Cc2nc3ccc(C(=O)NCc4cc(C)no4)cc3o2)cc1OC", "hERG current change (%, negative = inhibition) at 1uM": -4.18}
{"smiles": "Nc1cc(=O)[nH]c(SCCSc2ccc(F)cc2)n1", "hERG current change (%, negative = inhibition) at 1uM": 12.9}
{"smiles": "Cc1ccc(C)c(N2CCN(C(=O)CCS(=O)(=O)c3ccc4c(c3)NC(=O)C(C)S4)CC2)c1", "note": "(stereo not shown)", "hERG current change (%, negative = inhibition) at 1uM": -0.397}
{"smiles": "CCOc1cc(NC(=S)NCc2ccco2)c(OCC)cc1NC(C)=O", "hERG current change (%, negative = inhibition) at 1uM": 2.8}
{"smiles": "CCN(CCCn1c(=S)[nH]c2ccc(N3CCOCC3)cc2c1=O)c1ccccc1", "hERG current change (%, negative = inhibition) at 1uM": 5.86}
{"smiles": "CCCCCN(C(=O)CCC(=O)OCc1cccc(Br)c1)c1c(N)n(CCCC)c(=O)[nH]c1=O", "hERG current change (%, negative = inhibition) at 1uM": 0.761}
{"smiles": "O=C(COC(=O)c1cc[n+]([O-])cc1)NCCc1ccc(Cl)cc1Cl", "hERG current change (%, negative = inhibition) at 1uM": 7.99}
{"smiles": "COc1cccc(C2CC(C(F)(F)F)n3ncc(C(=O)NCc4ccco4)c3N2)c1", "note": "(stereo not shown)", "hERG current change (%, negative = inhibition) at 1uM": 3.2}
{"smiles": "Cc1cnc(NC(=O)c2sc(Nc3ccccc3)nc2N)o1", "hERG current change (%, negative = inhibition) at 1uM": 14.9}
{"smiles": "Cc1n[nH]c(=O)c2c1nnn2Cc1ccc(F)cc1", "hERG current change (%, negative = inhibition) at 1uM": 7.15}
{"smiles": "O=C1NCCCC1C(=O)N1CCN(C(=O)c2ccco2)CC1", "note": "(stereo not shown)", "hERG current change (%, negative = inhibition) at 1uM": -3.95}
{"smiles": "C[C@H](O)CC(=O)O", "hERG current change (%, negative = inhibition) at 1uM": 16.9}
{"smiles": "CC(NC(=O)Nc1ccc(Cl)c(Cl)c1)C(c1ccccc1)N1CCOCC1", "note": "(stereo not shown)", "hERG current change (%, negative = inhibition) at 1uM": 0.716}
{"smiles": "O=C(O)C(=O)O.c1ccc(COc2ccc(OCCCCN3CCCC3)cc2)cc1", "hERG current change (%, negative = inhibition) at 1uM": -28.2}
{"smiles": "COc1ccc(N2CCN(C(=O)CNC(=O)c3cccc(Br)c3)CC2)cc1", "hERG current change (%, negative = inhibition) at 1uM": 10.7}
{"smiles": "O=C(c1ccccc1CCc1ccccc1)N1CCN(c2ccccn2)CC1", "hERG current change (%, negative = inhibition) at 1uM": 1.7}
{"smiles": "COc1cccc(OC)c1-c1nnc(-c2cn(C)c3ccccc23)o1", "hERG current change (%, negative = inhibition) at 1uM": 8.08}
{"smiles": "CCOCCC(=O)Nc1nnc(CCc2ccccc2)s1", "hERG current change (%, negative = inhibition) at 1uM": 3.01}
{"smiles": "Cc1cccc(N2CCN(C(=O)c3cc(S(=O)(=O)N4CCOCC4)cn3C)CC2C)c1", "note": "(stereo not shown)", "hERG current change (%, negative = inhibition) at 1uM": 16.4}
{"smiles": "N#C/C(=C(/O)c1ccc([N+](=O)[O-])cc1)c1nnc2n1CCCCC2", "hERG current change (%, negative = inhibition) at 1uM": 7.72}
{"smiles": "CCOC(=O)c1cccc(NC(=O)CCNS(=O)(=O)c2ccc3c(c2)CCN3C(=O)CC)c1", "hERG current change (%, negative = inhibition) at 1uM": 7.56}
{"smiles": "Oc1ccc(-c2csc(Nc3ccccn3)n2)c(O)c1", "hERG current change (%, negative = inhibition) at 1uM": 13.3}
{"smiles": "Fc1ccc(N/N=C2/CCSc3sccc32)c(F)c1", "hERG current change (%, negative = inhibition) at 1uM": 2.1}
{"smiles": "CCOP(=O)(OCC)C(NC(=O)Nc1c(C)cc(C)cc1C)c1ccccc1", "note": "(stereo not shown)", "hERG current change (%, negative = inhibition) at 1uM": 10.6}
{"smiles": "Cn1c(SCC(=O)N2CCCC2)nnc1-c1ccc(S(=O)(=O)N2CCCC2)cc1", "hERG current change (%, negative = inhibition) at 1uM": -0.72}
{"smiles": "O=C(C(NS(=O)(=O)c1cccs1)c1ccccc1)N1CCN(c2ccccc2)CC1", "note": "(stereo not shown)", "hERG current change (%, negative = inhibition) at 1uM": -13.3}
{"smiles": "Cc1ccc(C(=O)O)cc1S(=O)(=O)N1CCCC1", "hERG current change (%, negative = inhibition) at 1uM": 2.89}
{"smiles": "COc1ccc(Cn2cnc3c(N)c(C)c(C)cc32)cc1", "hERG current change (%, negative = inhibition) at 1uM": 10.9}
{"smiles": "O=C(NNC(=S)NC1CCCCC1)c1sc2ccccc2c1Cl", "hERG current change (%, negative = inhibition) at 1uM": 6.85}
{"smiles": "Cc1ccccc1N=C1NC(=O)CS1", "hERG current change (%, negative = inhibition) at 1uM": 3.92}
{"smiles": "COc1ccc(C)cc1NC(=O)CN1CCN(S(=O)(=O)c2ccc(C(C)C)cc2)CC1", "hERG current change (%, negative = inhibition) at 1uM": 4.65}
{"smiles": "CCOc1ccc(OCC)c(NS(=O)(=O)c2ccc3c(c2)n(C)c(=O)c(=O)n3C)c1", "hERG current change (%, negative = inhibition) at 1uM": -4.68}
{"smiles": "Cl.O=C(O)c1ccc(CNCc2cccc(OCc3ccc(F)cc3)c2)cc1", "hERG current change (%, negative = inhibition) at 1uM": 19.4}
{"smiles": "Cc1ccc(C(=O)OCC(=O)N(C)c2ccccc2)cc1C", "hERG current change (%, negative = inhibition) at 1uM": 9.54}
{"smiles": "CN(CC(=O)NC(=O)NC(C)(C)C)CC(=O)Nc1ccccc1Cl", "hERG current change (%, negative = inhibition) at 1uM": 14.6}
{"smiles": "COc1ccc(-c2noc(CNC(=O)c3ccoc3C)n2)cc1OC", "hERG current change (%, negative = inhibition) at 1uM": 17.8}
{"smiles": "CN(C)N=Nc1ccc(S(N)(=O)=O)cc1", "hERG current change (%, negative = inhibition) at 1uM": 13.4}
{"smiles": "O=C(O)/C=C/c1ccc(S(=O)(=O)Nc2cccnc2)cc1", "hERG current change (%, negative = inhibition) at 1uM": 18.1}
{"smiles": "COCCNC(=O)c1cc2sccc2n1C", "hERG current change (%, negative = inhibition) at 1uM": 5.7}
{"smiles": "O=C1c2ccccc2-c2onc3ccc(Oc4ccccc4)c1c23", "hERG current change (%, negative = inhibition) at 1uM": -7.62}
{"smiles": "CCSc1nnc(NC(=O)c2cccnc2)s1", "hERG current change (%, negative = inhibition) at 1uM": 5.98}
{"smiles": "S=C1NCN(C2CCCCC2)CN1c1ccccc1", "hERG current change (%, negative = inhibition) at 1uM": 14}
{"smiles": "Cn1c(=O)c2c(nc(Cl)n2CCOc2ccccc2)n(C)c1=O", "hERG current change (%, negative = inhibition) at 1uM": 14.8}
{"smiles": "CCCCCn1c(C(Cc2ccccc2)NC(=O)COC)nc2ccccc21", "note": "(stereo not shown)", "hERG current change (%, negative = inhibition) at 1uM": -8.53}
{"smiles": "CCOC(=O)c1cc(CC)sc1NC(=O)c1ccc2c(c1)OCCO2", "hERG current change (%, negative = inhibition) at 1uM": 5.44}
{"smiles": "C/C=C/c1ccc(OCC(=O)Nc2ccncc2)c(OC)c1", "hERG current change (%, negative = inhibition) at 1uM": -6.15}
{"smiles": "O=C(NCc1ccco1)C1CCC(CNS(=O)(=O)c2cccc3cccnc23)CC1", "note": "(stereo not shown)", "hERG current change (%, negative = inhibition) at 1uM": 15.6}
{"smiles": "O=[N+]([O-])c1ccc(Oc2cccc(C(F)(F)F)c2)nc1", "hERG current change (%, negative = inhibition) at 1uM": 5.98}
{"smiles": "CCOC(=O)C1CCCCN1Cc1cn[nH]c1-c1ccc(F)cc1F", "note": "(stereo not shown)", "hERG current change (%, negative = inhibition) at 1uM": 6.54}
{"smiles": "COCCNc1nc(SCc2ccccc2)nc2sc3c(c12)CCC3", "hERG current change (%, negative = inhibition) at 1uM": 11.6}
{"smiles": "O=C(c1ccccc1)c1ccc(OCCn2cnc3ccccc3c2=O)cc1", "hERG current change (%, negative = inhibition) at 1uM": 11}
{"smiles": "COc1ccc(C(C)=O)cc1Cn1nnc(-c2ccccc2Br)n1", "hERG current change (%, negative = inhibition) at 1uM": 0.0382}
{"smiles": "C=CCOn1c(=O)c(-c2ccc(OC)c(OC)c2)[n+]([O-])c2ccccc21", "hERG current change (%, negative = inhibition) at 1uM": -13.3}
{"smiles": "CCn1c(SCc2ccccc2)nc2c1c(=O)[nH]c(=O)n2C", "hERG current change (%, negative = inhibition) at 1uM": 12.2}
{"smiles": "COc1ccc(-c2nonc2NC(=O)c2ccco2)cc1OC", "hERG current change (%, negative = inhibition) at 1uM": 17.3}
{"smiles": "COc1cc2cc(C(=O)N3CCOCC3)cc(-c3ccc(C)cc3)c2cc1OC", "hERG current change (%, negative = inhibition) at 1uM": 9.39}
{"smiles": "CCCCn1c(N)c(N(CCOC)C(=O)c2cccc(S(=O)(=O)N(C)c3ccccc3)c2)c(=O)[nH]c1=O", "hERG current change (%, negative = inhibition) at 1uM": 13.8}
{"smiles": "COc1cccc(/C=N/n2c(-c3ccco3)nc3ccccc3c2=O)c1OC", "hERG current change (%, negative = inhibition) at 1uM": 0.657}
